In a compilation of properties of binary mixtures (doi:10.1021/je500765m):
Some of these densities may be calculated back from excess volumes.

Assay: xn = mol fraction of the nth substance listed
Conditions: 101 kPa, x2 = 0.0138

CCCC[n+]1ccn(C)c1.N#C[C-](C#N)C#N + O
Conditions | mass density [kg/m3]
293.15 K | 1050.9
298.15 K | 1047.4
303.15 K | 1044.1
308.15 K | 1040.7
313.15 K | 1037.3
318.15 K | 1034
323.15 K | 1030.7
338.15 K | 1020.8
343.15 K | 1017.6
353.15 K | 1011.1
358.15 K | 1007.9
363.15 K | 1004.7
